Source: the supplement of paper PMC10369915
Some of the results follow. Cut-off read from the data, not from the text of the source: active = 3.2 or more and inactive = the rest. Only a few entries rise above the background.

B1: AKR1B1_Y40 (peptide)
chain: AIDVGYRHIDC
B2: AKT3_Y173 (peptide)
chain: KASGKYYAMKI
B3: ACVRL1_Y421_I417F (peptide)
chain: GFVEDYRPPFY
B4: ACVRL1_Y375_P378S (peptide)
chain: VGTKRYMASEV
B5: AKAP4_Y554 (peptide)
chain: LKLIQYHLTQQ
B6: AIFM1_Y347 (peptide)
chain: KILPEYLSNWT
B7: ADGRL4_Y301 (peptide)
chain: AVAFVYYKSIG
B8: ACVRL1_Y375_P378L (peptide)
chain: VGTKRYMALEV
B9: AK7_Y391_YF (peptide)
chain: ELANFYKLHHI
B10: AGXT_Y194_G190R (peptide)
chain: GRTPLYMDRQG
B11: AKR1C2_Y305 (peptide)
chain: NRNVRYLTLDI
B12: ADA_Y290_S291L (peptide)
chain: NDQANYLLNTD
B13: ADAR_Y587_Y587C (peptide)
chain: EESSHCSTEKE
B14: ADCY10_Y318 (peptide)
chain: AIQDAYMHITS
B15: ACVRL1_Y421_F425L (peptide)
chain: GIVEDYRPPLY
B16: ADAMTS18_Y764 (peptide)
chain: HKANEYYPVVL
B17: AK7_Y391_N389K (peptide)
chain: ELAKYYKLHHI
B18: ADAMTS18_Y765_YF (peptide)
chain: KANEFYPVVLI

target: SHP2 C-SH2 domain E139D; experiment: enrichment score (SH2-bound / input frequency) (ratio); bacterial display of known human phosphotyrosine sites (pTyr-Var adds point mutants) read by sequencing; higher = stronger binding; tyrosines were phosphorylated by kinases first; conditions: peptide library: pTyr-Var
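Note: displayed peptides selected on beads carrying the immobilized SH2 domain, with library peptides lacking any tyrosine serving as negative controls.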

Binder | enrichment score
B1 | inactive: 0.882
B2 | inactive: 1.19
B3 | inactive: 0.997
B4 | inactive: 0.551
B5 | inactive: 2.2
B6 | inactive: 1.02
B7 | inactive: 1.86
B8 | inactive: 0.76
B9 | inactive: 1.09
B10 | inactive: 0.789
B11 | inactive: 1.27
B12 | inactive: 0.596
B13 | inactive: 0.364
B14 | inactive: 0.982
B15 | inactive: 0.868
B16 | inactive: 0.8
B17 | inactive: 1.26
B18 | inactive: 0.463

target: SHP2 C-SH2 domain wild-type; experiment: as above; conditions: peptide library: pTyr-Var

Binder | enrichment score
B1 | inactive: 0.894
B2 | inactive: 1.39
B3 | inactive: 0.883
B4 | inactive: 0.406
B5 | inactive: 2.05
B6 | inactive: 1.05
B7 | inactive: 1.57
B8 | inactive: 0.575
B9 | inactive: 0.753
B10 | inactive: 1.02
B11 | inactive: 3.11
B12 | inactive: 0.51
B13 | inactive: 0.393
B14 | inactive: 0.651
B15 | inactive: 0.812
B16 | inactive: 0.856
B17 | inactive: 1.45
B18 | inactive: 0.551

target: SHP2 N-SH2 domain L43F; experiment: as above; conditions: peptide library: pTyr-Var

Binder | enrichment score
B1 | inactive: 0.892
B2 | inactive: 1.23
B3 | inactive: 1.13
B4 | inactive: 0.472
B5 | active: 4.47
B6 | inactive: 1.21
B7 | inactive: 1.63
B8 | inactive: 0.575
B9 | inactive: 0.993
B10 | inactive: 0.792
B11 | active: 9.87
B12 | inactive: 0.743
B13 | inactive: 0.378
B14 | inactive: 0.856
B15 | inactive: 0.791
B16 | inactive: 0.947
B17 | inactive: 1.14
B18 | inactive: 0.6

target: SHP2 N-SH2 domain T42A; experiment: as above; conditions: peptide library: pTyr-Var

Binder | enrichment score
B1 | inactive: 0.802
B2 | inactive: 1.54
B3 | inactive: 0.762
B4 | inactive: 0.383
B5 | inactive: 2.62
B6 | inactive: 0.982
B7 | inactive: 1.42
B8 | inactive: 1.43
B9 | inactive: 1.09
B10 | inactive: 0.702
B11 | active: 24.3
B12 | inactive: 0.564
B13 | inactive: 0.475
B14 | inactive: 0.678
B15 | inactive: 0.675
B16 | inactive: 0.631
B17 | inactive: 1.05
B18 | inactive: 0.597

target: SHP2 N-SH2 domain T52S; experiment: as above; conditions: peptide library: pTyr-Var

Binder | enrichment score
B1 | inactive: 0.694
B2 | inactive: 1.27
B3 | inactive: 0.828
B4 | inactive: 0.454
B5 | active: 5.54
B6 | inactive: 1.29
B7 | inactive: 1.77
B8 | inactive: 0.708
B9 | inactive: 0.969
B10 | inactive: 0.744
B11 | active: 12.1
B12 | inactive: 0.652
B13 | inactive: 0.458
B14 | inactive: 0.668
B15 | inactive: 0.739
B16 | inactive: 1.08
B17 | inactive: 1.11
B18 | inactive: 0.473

target: SHP2 N-SH2 domain wild-type; experiment: as above; conditions: peptide library: pTyr-Var

Binder | enrichment score
B1 | inactive: 0.9
B2 | inactive: 1.73
B3 | inactive: 0.953
B4 | inactive: 0.567
B5 | inactive: 2.3
B6 | inactive: 1.25
B7 | inactive: 1.3
B8 | inactive: 0.796
B9 | inactive: 0.905
B10 | inactive: 0.65
B11 | active: 4.15
B12 | inactive: 0.749
B13 | inactive: 0.317
B14 | inactive: 0.692
B15 | inactive: 0.846
B16 | inactive: 0.88
B17 | inactive: 1.26
B18 | inactive: 0.629
